Source: the supplement of paper PMC3334620
Whole data set: some 33,000 sequences, median “E-score (-0.5 to 0.5)” near -0.013, cut for the highest 2% near 0.3. Some of the results follow.

These sequences were tested against T1, Msn1 (UniProt P22148) (assay: PBM E-score (8-mer binding enrichment) (E-score (-0.5 to 0.5)); higher = stronger / more preferred TF binding; most listed sequences are background and not binding sites). Conditions: protein concentration: 200 nM; construct: GST-full length.
T1 sequence: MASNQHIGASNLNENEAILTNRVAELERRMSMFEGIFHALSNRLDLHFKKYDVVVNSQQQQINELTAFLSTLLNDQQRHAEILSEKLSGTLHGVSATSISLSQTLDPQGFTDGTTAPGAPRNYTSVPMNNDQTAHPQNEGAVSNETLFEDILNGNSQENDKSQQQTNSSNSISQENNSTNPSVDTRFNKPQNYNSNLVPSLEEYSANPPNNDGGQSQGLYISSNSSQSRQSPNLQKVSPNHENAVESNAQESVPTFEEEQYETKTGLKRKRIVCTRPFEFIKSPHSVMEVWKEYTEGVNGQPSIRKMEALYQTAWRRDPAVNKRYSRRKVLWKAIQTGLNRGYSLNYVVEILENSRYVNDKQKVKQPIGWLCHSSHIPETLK
Outline: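 Masliner-normalised scans of fluorescent anti-GST signal were the basis for scoring. That signal came from GST-tagged yeast transcription factors applied at about 100-200 nM to double-stranded universal all-10-mer Agilent arrays on fresh or once-stripped slides. Each ungapped eight-base word, pooled with its reverse complement, received an E-score from the Universal PBM Analysis Suite.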

Row | Sequence | PBM E-score
1 | AGCTTGAG | -0.24
2 | CAACCATG | 0.0589
3 | GTGGCTCA | -0.0852
4 | TAATGCTA | 0.146
5 | ACAGTCCA | 0.00446
6 | CAAGTCAA | -0.149
7 | ACAAGAGG | -0.011
8 | GGTTCCTA | -0.0173
9 | GATGGGCA | 0.00952
10 | GAGTTGCA | 0.0203
11 | CTCGAATA | -0.0344
12 | CCGCACAA | -0.146
13 | ATGCACCG | -0.211
14 | AAAGAATT | 0.147
15 | AATCGTAG | 0.11
16 | CGTCCCAC | 0.0126
17 | ACACGCGC | 0.173
18 | CTAAGGCA | -0.022
19 | AAGGTAGA | -0.136
20 | AGATTTAA | 0.0502
21 | CTGCCCAA | -0.0276
22 | CACAGGTG | -0.148
23 | GTTGACAA | 0.269
24 | ATACGTGC | -0.178
25 | AACTACCC | 0.0205

Row | Sequence | PBM E-score
26 | GTAAGCAC | -0.0979
27 | TACAAGAA | 0.169
28 | CTAGTCAC | -0.0149
29 | CCGGGCTA | -0.267
30 | GAAAGAAA | 0.0913
31 | CAGTGACC | -0.253
32 | CCTGCAAA | -0.188
33 | GCTACTGA | -0.124
34 | GTAGGGTA | 0.101
35 | AACGGTAA | 0.0145
36 | ACTCCCGA | -0.029
37 | GTCCAGAC | 0.0762
38 | AGCTATCA | -0.069
39 | CAGGGTAG | -0.22
40 | AGTCTACG | -0.221
41 | AGCAACAC | -0.0275
42 | GGTCCACC | -0.159
43 | CAGGAAGA | -0.0636
44 | ACGTCTGA | 0.121
45 | ACATAGAG | 0.00923
46 | ACGGACCA | 0.0706
47 | ACAATGCT | -0.0967
48 | CTGACACC | 0.0607
49 | CTCCTATA | -0.254
50 | ATCATATA | 0.0866

Row | Sequence | PBM E-score
51 | CCACAATC | -0.00968
52 | AGTCCGGC | 0.136
53 | GCACTTAC | -0.207
54 | TAAGGACA | 0.481
55 | GAACTGAA | -0.00121
56 | CGTGCCTC | -0.053
57 | CGCTGACA | 0.314
58 | GGCTTGCA | 0.00927
59 | AGCCGAAA | 0.193
60 | CTCCCGTA | -0.207
61 | GTGCTAAC | 0.0216
62 | AATTTACC | 0.056
63 | TGGATTAA | -0.0801
64 | GGTAGAAC | -0.115
65 | GCCCCCAA | -0.243
66 | ACATTGGT | 0.123
67 | GAGGTGGC | -0.233
68 | ACTATAAG | 0.0186
69 | CGACCGCA | -0.0304
70 | AATGACTA | 0.17
71 | AAGATGAT | 0.0352
72 | AGCTGTAG | -0.217
73 | ATGTGGGG | -0.388
74 | CCTAGCAA | -0.0686
75 | TGGTTCAA | 0.0383

Row | Sequence | PBM E-score
76 | CCTCGCTC | -0.00381
77 | ACGTGACT | -0.133
78 | GACACGAC | 0.248
79 | GATTCATA | -0.00685
80 | CAAAGAGG | -0.187
81 | CTAGGAGC | -0.125
82 | CAATAGCC | -0.109
83 | AATCGACT | -0.116
84 | ACCTGGGA | -0.0183
85 | CAGTTTAA | -0.0457
86 | ATACTTAA | 0.16
87 | TAATTCGA | 0.173
88 | AATGCAAC | 0.099
89 | CTTTTGGC | 0.00887
90 | CTGACATC | 0.143
91 | ATTTCAGC | -0.0737
92 | ACATTAGT | -0.0414
93 | GTAAGCAA | 0.0165
94 | CCGCAGTA | -0.174
95 | TACGAGGA | 0.144
96 | AATACTTA | -0.038
97 | AGCTTTTC | -0.101
98 | AGAGGTCG | -0.105
99 | AGGTTACG | -0.112
100 | CTTGTAAC | 0.123

Row | Sequence | PBM E-score
101 | CTCGAGTA | 0.0948
102 | TCCTGCGA | -0.0574
103 | ATGCTTTA | -0.00871
104 | GGCGCGCA | -0.0699
105 | CGGAGGTA | -0.0534
106 | GTCATCGA | 0.116
107 | TCCGTCGA | 0.119
108 | CTCCTCAG | -0.171
109 | TCGAAACA | 0.083
110 | CTTCCAGC | -0.241
111 | GCCCTTAC | -0.0108
112 | ACCACCAG | -0.212
113 | CTATAAGA | 0.0953
114 | GCGGGCAC | -0.0424
115 | CAGGGGCC | -0.366
116 | ACTCGAGA | -0.0333
117 | AATCAGTG | -0.0208
118 | AGCAAAAC | -0.0673
119 | AATGATGC | 0.135
120 | AGTTTGGG | 0.056
121 | AGCGGATC | -0.107
122 | ATTGACGG | 0.0517
123 | CGGTAGAA | -0.0617
124 | CGGATTGA | 0.0534
125 | AACGTGAC | -0.00656

Row | Sequence | PBM E-score
126 | CCGTTAAG | 0.0385
127 | GATCAGCC | -0.251
128 | TGCAATAA | 0.215
129 | AAATTATG | 0.195
130 | CATGTCCC | 0.459
131 | CGCATCTA | 0.211
132 | ACCCGCTA | -0.0585
133 | CGACACCC | -0.0338
134 | AGAAGTAA | 0.085
135 | ATTCTGTA | 0.0493
136 | AAGTGGTC | -0.0791
137 | CTGCCATC | -0.158
138 | GAGGTACC | -0.141
139 | ACATCCCG | 0.213
140 | AGACGCGA | 5e-05
141 | CTTGCGTA | -0.122
142 | AAGTACTG | 0.0493
143 | GTGCCCGA | -0.221
144 | ACACGCCG | 0.175
145 | AAACACAA | 0.138
146 | AGCAAGAC | 0.0541
147 | CACCGACA | 0.124
148 | AGAGTGAG | -0.121
149 | AACGGGTA | 0.0783
150 | CGGAGGAC | 0.0943

Row | Sequence | PBM E-score
151 | AAAAGTAG | 0.027
152 | ACTTGTCA | 0.369
153 | CGTCCAAA | 0.122
154 | AACTTGTG | 0.132
155 | AGAATCTA | -0.137
156 | ATGGGAAG | -0.203
157 | AAACGATA | 0.0762
158 | ATTTTAGG | 0.00808
159 | CACACCTC | -0.322
160 | CCAATAGC | -0.0522
161 | CTGGACAG | 0.0403
162 | ATTAATTG | 0.219
163 | ACGTTCCC | -0.191
164 | ACAGCATC | 0.0854
165 | AATGAGGA | -0.12
166 | ATAGCGTA | -0.0005
167 | CTTGCAAG | 0.0629
168 | TACCCTGA | -0.107
169 | ATATGTTA | -0.0436
170 | CTGACGAC | 0.0993
171 | TCAAGCGA | -0.0229
172 | CGCGACGC | 0.0409
